115 sequences from the BET-seq Pho4 binding data (Le et al. 2018) can be followed below.

Some of the results follow. The energies were worked out here from pooled read counts, against the library average; single values are noisy.

In this assay the target is T1, Pho4 (S. cerevisiae) (UniProt P07270).
T1 sequence: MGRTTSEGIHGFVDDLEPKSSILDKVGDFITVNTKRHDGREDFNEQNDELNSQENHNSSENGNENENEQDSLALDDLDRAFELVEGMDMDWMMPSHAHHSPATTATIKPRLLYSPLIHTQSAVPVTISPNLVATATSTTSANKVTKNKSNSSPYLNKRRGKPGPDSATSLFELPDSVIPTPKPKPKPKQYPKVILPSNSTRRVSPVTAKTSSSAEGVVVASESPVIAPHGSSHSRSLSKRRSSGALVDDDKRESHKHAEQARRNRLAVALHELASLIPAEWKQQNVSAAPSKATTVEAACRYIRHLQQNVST
As to the kind of experiment: relative binding free energy (BET-seq); higher = weaker binding. The settings on record: reference: library average.
Regarding ATGGACACGTGGTATA, the “relative binding free energy” value was -0.15 kcal/mol.
In the case of TTTCACACGTGGTTAT it was -0.04 kcal/mol.
In the case of AAATGCACGTGTGGGT it was 0.04 kcal/mol; in that of GGCGTCACGTGTGGAT, 0.16 kcal/mol; in that of CGATTCACGTGGTGAT, 0.12 kcal/mol.
In the case of CTGATCACGTGTGGTT it was 0.19 kcal/mol.
GGTGCCACGTGGGGTA: the “relative binding free energy” value is -0.23 kcal/mol.
In the case of ATGGTCACGTGTGGTT it was 0.15 kcal/mol.
In the case of GGGCGCACGTGTTTGA it was -0.03 kcal/mol; in that of ATTGTCACGTGAGGGG, 0.33 kcal/mol.
In the case of TAAGGCACGTGTGAAT it was 0.07 kcal/mol; in that of TTGCTCACGTGGGAGC, 0.26 kcal/mol; in that of CGTTTCACGTGGCTGG, 0.28 kcal/mol.
For the sequence TGAGTCACGTGAAAAT, the “relative binding free energy” value came to 0.37 kcal/mol.
In the case of TGCGGCACGTGACTGG, the “relative binding free energy” value is -0.02 kcal/mol.
In the case of TTGCGCACGTGGGCTG it was -0.25 kcal/mol.
In the case of AAACGCACGTGTAGGG it was -0.09 kcal/mol; in that of TTGAACACGTGTTTGC, 0.04 kcal/mol.
For the sequence ATCATCACGTGTTTTG, the “relative binding free energy” value amounted to 0.18 kcal/mol.
In the case of TTATACACGTGGGGCG it was -0.02 kcal/mol.
In the case of AGTATCACGTGAGGGA it was 0.31 kcal/mol; in that of AAAATCACGTGGGCGT, 0.08 kcal/mol.
In the case of GGGGTCACGTGTAGAA it was 0.32 kcal/mol.
CGTTGCACGTGGACGG: the “relative binding free energy” value was -0.03 kcal/mol.
GGTTGCACGTGCGTTT: the “relative binding free energy” value amounted to 0.07 kcal/mol.
Take GATGGCACGTGGGTGG: the “relative binding free energy” value is -0.07 kcal/mol.
Regarding GCGTACACGTGGGATT, the “relative binding free energy” value is 0.22 kcal/mol.
In the case of TGGCACACGTGAGGGT it was 0.28 kcal/mol.
For TTGGACACGTGCAGGT, the “relative binding free energy” value came out at 0.09 kcal/mol.
Take CAGGCCACGTGTTTTG: the “relative binding free energy” value was determined as 0 kcal/mol.
In the case of GTTAGCACGTGGTGGT it was -0.11 kcal/mol; in that of TCTTTCACGTGTAGAT, 0.39 kcal/mol.
In the case of TCAGTCACGTGGTGCG it was 0.06 kcal/mol; in that of CGAAGCACGTGGTTTG, -0.11 kcal/mol; in that of GTGTACACGTGCAAGG, -0.02 kcal/mol.
In the case of GATTCCACGTGTGTGT it was 0.1 kcal/mol; in that of CGACGCACGTGGTGGG, -0.14 kcal/mol; in that of CGACTCACGTGGTTTT, 0.25 kcal/mol.
For AATTGCACGTGGGGCA, the “relative binding free energy” value was -0.3 kcal/mol.
In the case of GGAGGCACGTGTTCGG it was -0.15 kcal/mol; in that of AAGTTCACGTGGGTTC, 0.15 kcal/mol.
CTTGGCACGTGTTAGT: the “relative binding free energy” value is -0.11 kcal/mol.
For the sequence TGTGTCACGTGAACGG, the “relative binding free energy” value stood at 0.35 kcal/mol.
In the case of AGAGGCACGTGCTTGG it was -0.25 kcal/mol.
In the case of TGAGGCACGTGGGTCC it was -0.28 kcal/mol; in that of AGAGACACGTGTGAGG, 0.15 kcal/mol.
In the case of CATTACACGTGTATGG it was 0.09 kcal/mol; in that of TGCGTCACGTGTGCAT, 0.22 kcal/mol; in that of TGAGTCACGTGTGGCC, 0.14 kcal/mol.
Turning to AAGGGCACGTGCGCGG, the “relative binding free energy” value is -0.27 kcal/mol.
In the case of ATGAACACGTGAGGGA it was 0.28 kcal/mol.
In the case of GGAGGCACGTGGCGCT it was -0.21 kcal/mol; in that of TATATCACGTGCGGGG, 0.13 kcal/mol; in that of TTGCTCACGTGGGGAG, 0.11 kcal/mol.
In the case of AGGGGCACGTGCCGGC it was -0.24 kcal/mol.
As for GTAGTCACGTGCGGCG, the “relative binding free energy” value was 0.08 kcal/mol.
In the case of TGAGCCACGTGGTGTG it was -0.28 kcal/mol; in that of CGGTTCACGTGTTGTC, 0.46 kcal/mol; in that of GATTCCACGTGTTGGG, 0.25 kcal/mol.
In the case of TTCGTCACGTGATATT it was 0.17 kcal/mol; in that of TTCAGCACGTGCTTGT, 0.04 kcal/mol; in that of TGGGTCACGTGAGCAA, 0.25 kcal/mol.
In the case of TAGTTCACGTGCTTTC it was 0.33 kcal/mol.
Take GTGTGCACGTGGGCAA: the “relative binding free energy” value was -0.21 kcal/mol.
For TGAGTCACGTGTCGTC, the “relative binding free energy” value was 0.19 kcal/mol.
In the case of GTGGACACGTGAAATT it was 0.33 kcal/mol; in that of TGTCTCACGTGTGAGT, 0.14 kcal/mol; in that of GGTTGCACGTGCAAGT, 0.03 kcal/mol.
In the case of GTCGGCACGTGCGTGA it was -0.02 kcal/mol; in that of TTTCTCACGTGAGTTT, 0.45 kcal/mol.
In the case of GTTGGCACGTGTGACA it was -0.06 kcal/mol.
With ATTAACACGTGTTGAG, the “relative binding free energy” value is 0 kcal/mol.
In the case of CGATTCACGTGGGGTC it was 0.1 kcal/mol; in that of TTTGGCACGTGAGATG, 0.06 kcal/mol.
In the case of GTAGCCACGTGATTGG it was 0.18 kcal/mol; in that of TTATCCACGTGGGGTT, -0.06 kcal/mol.
In the case of CTAGTCACGTGAGGAT it was 0.25 kcal/mol; in that of AGCAGCACGTGGTAGT, -0.22 kcal/mol; in that of CGTTTCACGTGATATA, 0.26 kcal/mol.
TGGTTCACGTGTATAC: the “relative binding free energy” value was 0.29 kcal/mol.
In the case of ACTTTCACGTGAAGTT it was 0.46 kcal/mol; in that of GAGAGCACGTGGTACG, -0.07 kcal/mol.
In the case of GAGGCCACGTGGAAGT it was 0.18 kcal/mol; in that of CTTTACACGTGATTTA, 0.31 kcal/mol.
In the case of TTAGTCACGTGGGGAG it was -0.08 kcal/mol; in that of GAAGGCACGTGGTGCA, -0.15 kcal/mol; in that of TGACGCACGTGAGAGG, 0.12 kcal/mol.
In the case of TTAGACACGTGAGTGA, the “relative binding free energy” value amounted to 0.22 kcal/mol.
In the case of AAGTGCACGTGGGGTG it was -0.18 kcal/mol; in that of ATTGTCACGTGTTCGT, 0 kcal/mol; in that of CAGGTCACGTGGATAG, 0.1 kcal/mol.
With GTAAGCACGTGGGCAG, the “relative binding free energy” value was -0.11 kcal/mol.
With TGTATCACGTGTTGTC, the “relative binding free energy” value was determined as 0.15 kcal/mol.
In the case of AGGAACACGTGCGGGT it was 0.03 kcal/mol; in that of GTATTCACGTGCGATT, 0.23 kcal/mol; in that of AGAGACACGTGGTGTA, -0.08 kcal/mol.
In the case of TTGTTCACGTGTGCCA it was 0.32 kcal/mol; in that of CGGGACACGTGGTGCT, -0.05 kcal/mol.
In the case of TGGTTCACGTGTTAGA it was 0.34 kcal/mol.
For the sequence AGTGTCACGTGTTTGT, the “relative binding free energy” value is -0.02 kcal/mol.
In the case of GCTCTCACGTGTGTGT it was 0.32 kcal/mol.
For CTTCGCACGTGGTTTG, the “relative binding free energy” value is -0.06 kcal/mol.
In the case of TTATGCACGTGATGGA it was 0.2 kcal/mol; in that of TTGTTCACGTGTGTCG, 0.18 kcal/mol.
In the case of TACCGCACGTGGGTGG it was -0.14 kcal/mol; in that of ATTAGCACGTGGCTGA, -0.1 kcal/mol; in that of TTTAGCACGTGAAGCG, 0.2 kcal/mol.
In the case of GGTTTCACGTGCCAGG it was 0.4 kcal/mol; in that of TGGTTCACGTGGGTTA, 0.2 kcal/mol.
For the sequence TTGGACACGTGAACGG, the “relative binding free energy” value was determined as 0.26 kcal/mol.
In the case of CGCGGCACGTGTTGGC it was -0.05 kcal/mol.
In the case of GGGGTCACGTGGAACA it was 0.25 kcal/mol; in that of AGTGACACGTGATTTA, 0.2 kcal/mol; in that of TAGATCACGTGAGATG, 0.35 kcal/mol.
In the case of GGTTACACGTGGGTTG, the “relative binding free energy” value came out at 0.05 kcal/mol.
